Data published in PubChem BioAssay (NCATS).
This list was built around the results that the source calls inconclusive (neither active nor inactive); the mix of calls is not that of the screen. Potencies of inconclusive entries are left out as doubtful fits. The source made the active and inactive calls. Calls come from the whole dose curve; as a rule, active = well fitted inhibition curve with a large enough effect; inconclusive = small, poorly fitted or top-dose-only effect; inactive = no such curve, though single readings can be large or run the other way.

target: Rap guanine nucleotide exchange factor 3 (Homo sapiens) (UniProt O95398); experiment: Confirmatory qHTS for antagonist of cAMP-regulated guanine nucleotide exchange factor 3 (EPAC1) (AID 1645880); details: EPAC1 Rap1B-BODIPY-GDP exchange, fluorescence; activity, negative = inhibition: at 115 µM (top of the series); note: nearly all actives have a fitted effect of over 55% in size;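 for activity, negative = inhibition: plate controls were DMSO only for no effect and full effect of the ATA control for full effect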
UniProt O95398, sequence (O95398 whole entry, looked up): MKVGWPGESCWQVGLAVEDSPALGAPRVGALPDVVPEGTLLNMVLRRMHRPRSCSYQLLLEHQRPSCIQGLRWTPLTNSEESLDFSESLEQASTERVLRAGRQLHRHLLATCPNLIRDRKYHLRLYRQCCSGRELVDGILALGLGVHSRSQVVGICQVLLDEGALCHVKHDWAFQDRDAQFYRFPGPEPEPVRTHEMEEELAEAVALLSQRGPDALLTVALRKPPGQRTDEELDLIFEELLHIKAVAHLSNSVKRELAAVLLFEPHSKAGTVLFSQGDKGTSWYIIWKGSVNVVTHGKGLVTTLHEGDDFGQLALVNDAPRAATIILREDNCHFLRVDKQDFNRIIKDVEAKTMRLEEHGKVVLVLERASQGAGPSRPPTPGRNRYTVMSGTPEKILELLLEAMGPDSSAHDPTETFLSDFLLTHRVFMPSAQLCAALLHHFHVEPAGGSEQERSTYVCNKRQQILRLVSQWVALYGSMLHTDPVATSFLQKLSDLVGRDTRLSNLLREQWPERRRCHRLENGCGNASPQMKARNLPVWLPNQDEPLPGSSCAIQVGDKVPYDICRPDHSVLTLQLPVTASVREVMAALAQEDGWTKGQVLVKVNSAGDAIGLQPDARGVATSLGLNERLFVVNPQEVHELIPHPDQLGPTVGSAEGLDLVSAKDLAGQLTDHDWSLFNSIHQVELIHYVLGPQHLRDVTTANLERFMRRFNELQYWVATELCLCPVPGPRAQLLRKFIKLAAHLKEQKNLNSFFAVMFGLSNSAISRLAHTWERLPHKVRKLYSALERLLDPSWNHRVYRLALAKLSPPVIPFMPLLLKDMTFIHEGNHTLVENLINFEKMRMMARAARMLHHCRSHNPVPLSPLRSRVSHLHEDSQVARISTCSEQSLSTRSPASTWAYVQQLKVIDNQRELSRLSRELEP
Procedure, shortened: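 Released BODIPY-GDP fluoresces less than Rap1-bound BODIPY-GDP; the signal is followed at 480/540 nm at 5-min intervals over 30 min, after 5 min at room temperature. Reactions contain 100 nM EPAC1, 250 nM RAP1B-BODIPY-GDP and 50 uM GDP; results are normalized to ATA and DMSO.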
Potency is the fitted concentration of half-maximal effect; tags give direction and shape of the fitted curve.

Compound	Potency	activity, negative = inhibition
COC(=O)C1CCN(c2nc3ccccc3nc2C(C#N)C(=O)NCCc2ccccc2)CC1 (stereo not drawn)	inconclusive [inhibitor, partial curve, poor fit]	
O=C(CSc1n[nH]c(=O)[nH]c1=O)Nc1ccc2c(c1)C(=O)c1ccccc1C2=O	inconclusive [inhibitor, partial curve]	
C=CCc1cc(/C=C/c2nc(O)c([N+](=O)[O-])c(=O)[nH]2)cc(OC)c1O	active: 33.8 µM	
CN(Cc1ccco1)c1ncnc2ccc(-c3ccccc3Cl)cc12	inconclusive [inhibitor, partial curve, poor fit]	
O=C(/C=N/O)NCCCN1CCOCC1		inactive: -1.72%
C[C@H](CCC(=O)O)[C@H]1CC[C@H]2[C@@H]3CC[C@@H]4C[C@H](O)CC[C@]4(C)[C@H]3CC[C@]12C	inconclusive [inhibitor, partial curve]	
O=C(O)C1Nc2c(Cl)cc(Cl)c(Cl)c2C2C=CCC12 (stereo not drawn)	inconclusive [inhibitor, full curve]	
Cc1ccc2c(CC(=O)OCc3cc(=O)n4c(n3)sc3ccccc34)coc2c1	inconclusive [inhibitor, partial curve, poor fit]	
COc1cc(/C=C2\C(=O)N(c3cccc(C(=O)O)c3)N=C2C)ccc1OCc1ccccc1	active: 37.9 µM	
O=C(O)c1ccccc1NS(=O)(=O)c1ccc(NN=Cc2ccccc2F)c([N+](=O)[O-])c1	inconclusive [inhibitor, partial curve]	
COc1ccccc1OCCOc1ccc(/C=C2\C(=N)N3N=C(S(C)(=O)=O)SC3=NC2=O)cc1	active: 67.5 µM	
O=C(N/N=C/c1cc(Cl)c(O)c(Cl)c1)c1cc2c(ccc3ccccc32)o1	active: 60.1 µM	
COc1cc(/C=C(\C#N)c2nc3ccccc3s2)cc([N+](=O)[O-])c1O	active: 16.9 µM	
COc1cccc(-c2nc(NCc3ccc(OC)cc3OC)c3ccccc3n2)c1	inconclusive [inhibitor, partial curve, poor fit]	
O=C(COC(=O)c1c2c(nc3ccccc13)/C(=C/c1ccco1)CC2)NC1CCCC1	active: 30.1 µM	
COc1ccc(-c2nc3cnc(Nc4cccc(OC)c4)nc3n(Cc3cccs3)c2=O)cc1	inconclusive [inhibitor, single point]	
COc1cccc(N2CCN(CC(=O)NC(=O)NCc3ccco3)CC2)c1	inconclusive [inhibitor, partial curve]	
Cc1ccc(/C=C2/SC(=S)N(c3ccc(S(=O)(=O)Nc4nccs4)cc3)C2=O)cc1	inconclusive [inhibitor, partial curve]	
O=C(Nc1ccccc1)N1CCCC2(CCN(C(=O)c3cc(C(F)(F)F)cc(C(F)(F)F)c3)CC2)C1	inconclusive [inhibitor, partial curve]	
N#CC(C(=O)OC1CCCCC1)c1nc2ccccc2nc1N1CCOCC1 (stereo not drawn)		inactive: 76.2%
O=c1cc2oc3cc(O)c(O)cc3c(-c3ccccc3[N+](=O)[O-])c-2cc1O	active: 10.7 µM	
O=C1C=CC2=C3c4cc(O)c(O)cc4CC3(O)COC2=C1O (stereo not drawn)	inconclusive [inhibitor, full curve]	
O=C(O)c1ccc(COc2ccc3ccccc3c2/C=C2/NC(=O)N(Cc3ccc(F)cc3)C2=O)cc1	inconclusive [inhibitor, full curve]	
Cc1cc(C)c(Nc2cc(S(=O)(=O)O)c(N)c3c2C(=O)c2ccccc2C3=O)c(C)c1	active: 30.1 µM	
COc1ccccc1CNc1nc(-c2c(C)noc2C)nc2ccccc12	inconclusive [inhibitor, partial curve]	
COC(=O)CC1C2(C)CC34OC5(C)O[C@@]6(C7/C(=C(/OC)C(C)C)C(=O)OC(c8ccoc8)[C@@]7(C)C(OC(=O)C(C)C)C(OC)[C@]6(O5)[C@@]13C)C(OC)[C@]4(OC)C2OC(C)=O (stereo partly drawn)	inconclusive [inhibitor, partial curve, poor fit]	
CCCCCCNC(=O)c1cc(-c2ccco2)nc2ccccc12	active: 22.4 µM	
COc1cc(/C=C/[N+](=O)[O-])ccc1OCc1cccc(C(=O)O)c1	inconclusive [inhibitor, partial curve]	
